Results as given in the antibiotic and cytotoxicity screens of Wong et al. (2023).
The other results are listed elsewhere or left out.

What was measured:
HSkMC = human skeletal muscle cells; assay: cytotoxicity call (relative viability < 0.9); details: 10 µM
S. aureus RN4220 = assay: growth inhibition call (relative growth <= 0.2); details: 50 µM

Compound | cytotoxicity call (HSkMC) | growth inhibition call (S. aureus RN4220)
Cc1cc(-c2cc(OC(=O)c3ccccc3)ccc2Cl)cc2nnc(Nc3ccc(OCCN4CCCC4)cc3)nc12 | active | inactive
C[C@@H]1CCCCO[C@H](CN(C)C(=O)Nc2cccc3ccccc23)[C@@H](C)CN([C@H](C)CO)C(=O)c2cc(NC(=O)CCC(F)(F)F)ccc2O1 | inactive | inactive
COCC(=O)N(C)C[C@H]1Oc2cc(C#Cc3ccccc3)ccc2S(=O)(=O)N([C@H](C)CO)C[C@H]1C | inactive | inactive
C[C@@H]1CN([C@H](C)CO)C(=O)c2cc(NC(=O)NC3CCCCC3)ccc2O[C@@H](C)CCCCO[C@@H]1CN(C)Cc1ccc(C(F)(F)F)cc1 | inactive | inactive
C[C@H](CO)N1C[C@H](C)[C@@H](CN(C)S(=O)(=O)c2ccc(F)cc2)Oc2ccc(NC(=O)C3CC3)cc2C1=O | inactive | inactive
C[C@@H]1CCCCO[C@@H](CN(C)Cc2ccc3c(c2)OCO3)[C@@H](C)CN([C@H](C)CO)C(=O)c2cc(NC(=O)c3ccccc3)ccc2O1 | inactive | inactive
COc1ccc(NC(=O)N[C@H]2CC[C@@H](CCNC(=O)CN3CCOCC3)O[C@@H]2CO)cc1 | inactive | inactive
COc1ccc(NC(=O)N(C)C[C@@H]2OCCCC[C@@H](C)Oc3ccc(NS(=O)(=O)c4c(C)noc4C)cc3C(=O)N([C@@H](C)CO)C[C@H]2C)cc1 | inactive | inactive
COCC#Cc1cnc2c(c1)C(=O)N([C@H](C)CO)C[C@H](C)[C@@H](CN(C)S(=O)(=O)c1cccc(OC)c1)O2 | inactive | inactive
CC(=O)N[C@@H]1CC[C@H](CCNC(=O)C2CC2)O[C@H]1CO | inactive | inactive
